Test results: the supplement of paper PMC8821664
Structures can show the parent of a compound that is named as a salt. The list shows a part of the results. Single values are uncertain, as repeats are few or missing.

system: Beas-2B AQP5-HiBiT reporter cells; assay: AQP5-HiBiT luminescence relative to vehicle (ratio to vehicle); higher = higher AQP5-HiBiT protein abundance; settings: 10 µM; 18 h
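Further: monoclonal Beas-2B line stably carrying CMV promoter-driven AQP5-HiBiT, 5,000 cells per well in 384-well plates, lytic HiBiT plus LgBiT NanoLuc luminescence, FDA-approved drug library screen.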

Structure (SMILES)	AQP5-HiBiT luminescence
C[C@H]1[C@H](NC(=O)/C(=N\OC(C)(C)C(=O)O)c2csc(N)n2)C(=O)N1S(=O)(=O)O [Aztreonam]	0.879
CC#C[C@]1(O)CC[C@H]2[C@@H]3CCC4=CC(=O)CCC4=C3[C@@H](c3ccc(N(C)C)cc3)C[C@@]21C [Mifepristone]	0.813
O=C(O)C1=C(CSc2nnnn2CS(=O)(=O)O)CS[C@@H]2[C@H](NC(=O)[C@H](O)c3ccccc3)C(=O)N12 [Cefonicid sodium]	1.16
CCCCCCCCc1ccc(CCC(N)(CO)CO)cc1 [Fingolimod (FTY720) hydrochloride]	2.01
CCOC(=O)[C@H](CCc1ccccc1)N[C@@H](C)C(=O)N1Cc2ccccc2C[C@H]1C(=O)O [Quinapril hydrochloride]	0.953
CCCCCCCCCCCCCCCCOP(=O)([O-])OCC[N+](C)(C)C [Miltefosine]	1.03
CCN(CC)CC(=O)Nc1c(C)cccc1C [Lidocaine hydrochloride]	0.956
N#CC1(c2ccc(NC(=O)c3cccnc3NCc3ccncc3)cc2)CCCC1 [Apatinib]	0.464
